# From the supplement of paper PMC8728848
# This is one part of the list.
# Tests used:
# Test in all cases: glycan array binding signal (z-score within array); higher = stronger binding
# Settings in all cases: glycan notation: IUPAC condensed, linker removed
# [1] = biological target: GlcNAc(b1-3)Gal(b1-4)GlcNAc(b1-6)[Gal(b1-3)]GalNAc
# Procedure, shortened: (§1)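 Glycan array data came from 3228 arrays in the Consortium for Functional Glycomics database, and only arrays with an available protein sequence were kept. Glycan names were put into IUPAC-condensed notation, and columns mapping to the same glycan were averaged. The binding signal is a within-array Z-score, averaged across arrays of one protein sequence run at different concentrations or buffers and across linkers. A negative Z-score can be read as non-binding.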
# [2] = biological target: GlcNAc(b1-3)Gal(b1-4)GlcNAc(b1-6)[GlcNAc(b1-3)Gal(b1-3)]GalNAc
# Procedure, shortened: as §1
# [3] = biological target: GlcNAc(b1-3)Gal(b1-4)GlcNAc(b1-6)[GlcNAc(b1-3)]Gal(b1-4)GlcNAc
# Procedure, shortened: as §1
# GlcNAc(b1-3)GalNAc = biological target: GlcNAc(b1-3)GalNAc
# Procedure, shortened: as §1
# GlcNAc(b1-3)Man = biological target: GlcNAc(b1-3)Man
# Procedure, shortened: as §1
# [4] = biological target: GlcNAc(b1-3)[GlcNAc(b1-4)][GlcNAc(b1-6)]GlcNAc
# Procedure, shortened: as §1
# [5] = biological target: GlcNAc(b1-3)[GlcNAc(b1-6)]Gal(b1-4)GlcNAc
# Procedure, shortened: as §1
# [6] = biological target: GlcNAc(b1-3)[GlcNAc(b1-6)]GalNAc
# Procedure, shortened: as §1
# [7] = biological target: GlcNAc(b1-3)[GlcNAc(b1-6)]GlcNAc
# Procedure, shortened: as §1
# [8] = biological target: GlcNAc(b1-3)[GlcNAc(b1-6)]GlcNAc(b1-4)GlcNAc
# Procedure, shortened: as §1
# [9] = biological target: GlcNAc(b1-4)Gal(b1-4)GlcNAc
# Procedure, shortened: as §1
# GlcNAc(b1-4)GlcNAc = biological target: GlcNAc(b1-4)GlcNAc
# Procedure, shortened: as §1
# [10] = biological target: GlcNAc(b1-4)GlcNAc(b1-4)GlcNAc
# Procedure, shortened: as §1
# [11] = biological target: GlcNAc(b1-4)GlcNAc(b1-4)GlcNAc(b1-4)GlcNAc(b1-4)GlcNAc
# Procedure, shortened: as §1
# [12] = biological target: GlcNAc(b1-4)GlcNAc(b1-4)GlcNAc(b1-4)GlcNAc(b1-4)GlcNAc(b1-4)GlcNAc
# Procedure, shortened: as §1
# [13] = biological target: GlcNAc(b1-4)[GlcNAc(b1-6)]GalNAc
# Procedure, shortened: as §1
# [14] = biological target: GlcNAc(b1-6)Gal(b1-4)GlcNAc
# Procedure, shortened: as §1
# GlcNAc(b1-6)GalNAc = biological target: GlcNAc(b1-6)GalNAc
# Procedure, shortened: as §1
# GlcNAc3Prop(b1-4)GlcNAc = biological target: GlcNAc3Prop(b1-4)GlcNAc
# Procedure, shortened: as §1
# [15] = biological target: GlcNAc6S(b1-3)Gal(b1-4)GlcNAc
# Procedure, shortened: as §1
# Kdn(a2-3)Gal(b1-3)GalNAc = biological target: Kdn(a2-3)Gal(b1-3)GalNAc
# Procedure, shortened: as §1
# Kdn(a2-3)Gal(b1-3)GlcNAc = biological target: Kdn(a2-3)Gal(b1-3)GlcNAc
# Procedure, shortened: as §1
# Kdn(a2-3)Gal(b1-4)Glc = biological target: Kdn(a2-3)Gal(b1-4)Glc
# Procedure, shortened: as §1
# Kdn(a2-3)Gal(b1-4)GlcNAc = biological target: Kdn(a2-3)Gal(b1-4)GlcNAc
# Procedure, shortened: as §1
# [16] = biological target: Kdn(a2-3)Gal(b1-4)[Fuc(a1-3)]GlcNAc
# Procedure, shortened: as §1
# Kdn(a2-6)Gal(b1-4)GlcNAc = biological target: Kdn(a2-6)Gal(b1-4)GlcNAc
# Procedure, shortened: as §1
# [17] = biological target: Man(a1-2)Man(a1-2)Man(a1-3)Man
# Procedure, shortened: as §1
# [18] = biological target: Man(a1-2)Man(a1-2)Man(a1-3)[Man(a1-2)Man(a1-3)[Man(a1-2)Man(a1-6)]Man(a1-6)]Man(b1-4)GlcNAc(b1-4)GlcNAc
# Procedure, shortened: as §1
# [19] = biological target: Man(a1-2)Man(a1-2)Man(a1-3)[Man(a1-2)Man(a1-6)[Man(a1-3)]Man(a1-6)]Man(b1-4)GlcNAc(b1-4)GlcNAc
# Procedure, shortened: as §1
# [20] = biological target: Man(a1-2)Man(a1-2)Man(a1-6)[Man(a1-3)]Man
# Procedure, shortened: as §1
# Man(a1-2)Man(a1-3)Man = biological target: Man(a1-2)Man(a1-3)Man
# Procedure, shortened: as §1
# [21] = biological target: Man(a1-2)Man(a1-3)[Man(a1-2)Man(a1-6)]Man
# Procedure, shortened: as §1
# [22] = biological target: Man(a1-2)Man(a1-3)[Man(a1-2)Man(a1-6)]Man(a1-6)[Man(a1-2)Man(a1-2)Man(a1-3)]Man
# Procedure, shortened: as §1
# [23] = biological target: Man(a1-2)Man(a1-3)[Man(a1-2)Man(a1-6)]Man(a1-6)[Man(a1-2)Man(a1-2)Man(a1-3)]Man(b1-4)GlcNAc(b1-4)GlcNAc
# Procedure, shortened: as §1
# [24] = biological target: Man(a1-2)Man(a1-3)[Man(a1-3)[Man(a1-6)]Man(a1-6)]Man(b1-4)GlcNAc(b1-4)GlcNAc
# Procedure, shortened: as §1
# [25] = biological target: Man(a1-2)Man(a1-3)[Man(a1-6)]Man(a1-6)[Man(a1-2)Man(a1-3)]Man(b1-4)GlcNAc(b1-4)GlcNAc
# Procedure, shortened: as §1
# [26] = biological target: Man(a1-2)Man(a1-6)[Man(a1-3)]Man(a1-6)[Man(a1-2)Man(a1-2)Man(a1-3)]Man
# Procedure, shortened: as §1
# [27] = biological target: Man(a1-2)Man(a1-6)[Man(a1-3)]Man(a1-6)[Man(a1-2)Man(a1-2)Man(a1-3)]Man(b1-4)GlcNAc(b1-4)GlcNAc
# Procedure, shortened: as §1
# Man(a1-3)[Man(a1-6)]Man = biological target: Man(a1-3)[Man(a1-6)]Man
# Procedure, shortened: as §1
# [28] = biological target: Man(a1-3)[Man(a1-6)]Man(a1-6)[Man(a1-2)Man(a1-3)]Man(b1-4)GlcNAc(b1-4)GlcNAc
# Procedure, shortened: as §1
# [29] = biological target: Man(a1-3)[Man(a1-6)]Man(a1-6)[Man(a1-3)]Man
# Procedure, shortened: as §1
# [30] = biological target: Man(a1-3)[Man(a1-6)]Man(a1-6)[Man(a1-3)]Man(b1-4)GlcNAc(b1-4)GlcNAc
# Procedure, shortened: as §1
# [31] = biological target: Man(a1-3)[Man(a1-6)]Man(b1-4)GlcNAc(b1-4)GlcNAc
# Procedure, shortened: as §1
# [32] = biological target: Man(a1-3)[Man(a1-6)]Man(b1-4)GlcNAc(b1-4)[Fuc(a1-6)]GlcNAc
# Procedure, shortened: as §1
# Man(a1-6)Man = biological target: Man(a1-6)Man
# Procedure, shortened: as §1
binder,measurement,setting,value
"Gal 2 (Homo sapiens), P05162 (protein) MTGELEVKNMDMKPGSTLKITGSIADGTDGFVINLGQGTDKLNLHFNPRFSESTIVCNSLDGSNWGQEQREDHLCFSPGSEVKFTVTFESDKFKVKLPDGHELTFPNRLGHSHLSYLSVRGGFNMSSFKLKE",glycan array binding signal (z-score),[1],-0.123
same,glycan array binding signal (z-score),[2],-0.224
same,glycan array binding signal (z-score),[3],-0.245
same,glycan array binding signal (z-score),GlcNAc(b1-3)GalNAc,-0.196
same,glycan array binding signal (z-score),GlcNAc(b1-3)Man,-0.231
same,glycan array binding signal (z-score),[4],-0.237
same,glycan array binding signal (z-score),[5],-0.247
same,glycan array binding signal (z-score),[6],-0.219
same,glycan array binding signal (z-score),[7],-0.429
same,glycan array binding signal (z-score),[8],-0.396
same,glycan array binding signal (z-score),[9],-0.216
same,glycan array binding signal (z-score),GlcNAc(b1-4)GlcNAc,-0.209
same,glycan array binding signal (z-score),[10],-0.267
same,glycan array binding signal (z-score),[11],-0.269
same,glycan array binding signal (z-score),[12],-0.269
same,glycan array binding signal (z-score),[13],-0.257
same,glycan array binding signal (z-score),[14],-0.272
same,glycan array binding signal (z-score),GlcNAc(b1-6)GalNAc,-0.254
same,glycan array binding signal (z-score),GlcNAc3Prop(b1-4)GlcNAc,-0.249
same,glycan array binding signal (z-score),[15],-0.202
same,glycan array binding signal (z-score),Kdn(a2-3)Gal(b1-3)GalNAc,-0.139
same,glycan array binding signal (z-score),Kdn(a2-3)Gal(b1-3)GlcNAc,-0.263
same,glycan array binding signal (z-score),Kdn(a2-3)Gal(b1-4)Glc,0.019
same,glycan array binding signal (z-score),Kdn(a2-3)Gal(b1-4)GlcNAc,-0.241
same,glycan array binding signal (z-score),[16],-0.182
same,glycan array binding signal (z-score),Kdn(a2-6)Gal(b1-4)GlcNAc,-0.158
same,glycan array binding signal (z-score),[17],-0.27
same,glycan array binding signal (z-score),[18],1.05
same,glycan array binding signal (z-score),[19],-0.402
same,glycan array binding signal (z-score),[20],-0.218
same,glycan array binding signal (z-score),Man(a1-2)Man(a1-3)Man,-0.282
same,glycan array binding signal (z-score),[21],-0.24
same,glycan array binding signal (z-score),[22],-0.224
same,glycan array binding signal (z-score),[23],-0.034
same,glycan array binding signal (z-score),[24],-0.028
same,glycan array binding signal (z-score),[25],-0.268
same,glycan array binding signal (z-score),[26],-0.211
same,glycan array binding signal (z-score),[27],-0.22
same,glycan array binding signal (z-score),Man(a1-3)[Man(a1-6)]Man,-0.234
same,glycan array binding signal (z-score),[28],0.076
same,glycan array binding signal (z-score),[29],-0.221
same,glycan array binding signal (z-score),[30],-0.263
same,glycan array binding signal (z-score),[31],-0.231
same,glycan array binding signal (z-score),[32],-0.147
same,glycan array binding signal (z-score),Man(a1-6)Man,-0.186
